# Assay results as given in publication PMC4336329 (PLoS ONE, 2015).
# Out of some 310,000 compounds screened, about 2,200 (0.71%) showed an effect of 50% or more. Effects have a minus sign here. Some of the results follow.
# Biological target: human ether-à-go-go-related gene (hERG) potassium channel (human, UniProt Q12809)
# Experiment: primary screen, population patch clamp on CHO cells stably expressing hERG
# human ether-à-go-go-related gene (hERG) potassium channel, sequence (Q12809 whole entry, looked up): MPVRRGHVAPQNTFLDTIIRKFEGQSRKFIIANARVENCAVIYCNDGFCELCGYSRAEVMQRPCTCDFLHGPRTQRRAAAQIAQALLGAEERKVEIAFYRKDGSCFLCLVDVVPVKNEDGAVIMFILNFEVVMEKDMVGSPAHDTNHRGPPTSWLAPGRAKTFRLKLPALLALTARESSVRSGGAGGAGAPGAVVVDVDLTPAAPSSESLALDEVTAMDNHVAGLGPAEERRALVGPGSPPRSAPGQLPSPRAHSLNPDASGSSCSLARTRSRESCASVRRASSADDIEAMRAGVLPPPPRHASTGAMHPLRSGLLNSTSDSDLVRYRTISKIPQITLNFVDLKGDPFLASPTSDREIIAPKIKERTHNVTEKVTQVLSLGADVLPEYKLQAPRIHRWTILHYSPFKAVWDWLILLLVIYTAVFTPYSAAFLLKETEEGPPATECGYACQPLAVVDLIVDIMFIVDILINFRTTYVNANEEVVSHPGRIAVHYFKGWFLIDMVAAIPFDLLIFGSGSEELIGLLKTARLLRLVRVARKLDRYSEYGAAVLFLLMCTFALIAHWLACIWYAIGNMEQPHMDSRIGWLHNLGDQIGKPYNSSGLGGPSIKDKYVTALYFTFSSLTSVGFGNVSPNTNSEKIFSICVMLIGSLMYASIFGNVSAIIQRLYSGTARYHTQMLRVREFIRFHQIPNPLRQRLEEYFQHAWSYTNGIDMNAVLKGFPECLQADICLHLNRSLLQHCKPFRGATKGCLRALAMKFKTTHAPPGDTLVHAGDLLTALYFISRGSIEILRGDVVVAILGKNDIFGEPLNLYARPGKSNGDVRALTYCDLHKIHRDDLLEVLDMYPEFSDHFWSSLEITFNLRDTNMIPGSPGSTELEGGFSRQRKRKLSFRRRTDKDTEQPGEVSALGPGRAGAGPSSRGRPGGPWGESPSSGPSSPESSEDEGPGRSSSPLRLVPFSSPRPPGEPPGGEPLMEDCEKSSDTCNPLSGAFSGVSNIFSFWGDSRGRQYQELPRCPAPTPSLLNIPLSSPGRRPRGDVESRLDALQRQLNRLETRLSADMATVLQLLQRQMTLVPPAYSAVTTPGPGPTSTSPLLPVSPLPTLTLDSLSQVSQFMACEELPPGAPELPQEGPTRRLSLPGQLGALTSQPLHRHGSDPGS
row,Structure (SMILES),"hERG current change (%, negative = inhibition) at 1uM"
1,O=C(CNC(=O)COc1ccccc1)NCc1cccnc1,10.9%
2,COc1ccc(-c2sc3ccccc3c2C#CCCO)cc1,19.1%
3,COC(=O)C1=C(NC(=O)C(C)(C)C)CCS1,10.7%
4,CN(c1ccccc1)c1ccc([N+](=O)[O-])c2nonc12,14.5%
5,Cc1cccc(C(=O)CC(=O)c2cc(Cl)ccc2O)c1,11.6%
6,CC(C)(C)c1ccc(C(=O)O[C@H]2[C@H](Cc3ccccc3)NS(=O)(=O)[C@H]3C[C@@H]4C=C[C@]23O4)cc1,19.3%
7,O=c1cc(CN2CCCCCC2)nc2sccn12,-8.88%
8,O=C(CCc1nnc(Cc2cccc(C(F)(F)F)c2)o1)NCC(F)(F)F,7.14%
9,OCCOCCn1c(CCNc2nc(-c3ccc(F)cc3)cs2)nc2cc(C(F)(F)F)ccc21,-8.32%
10,Cc1ccccc1NC(=O)C1c2cccc[n+]2CC(=O)N1Cc1ccc2c(c1)OCO2.[I-] (stereo not drawn),2.79%
11,O=C(Cc1ccccc1[N+](=O)[O-])Nc1nccs1,-8.97%
12,CC(C)NC(=S)N/N=C/c1cccnc1,14.3%
13,CC1CCN(S(=O)(=O)c2ccc3c(c2)NC(=O)CS3)CC1,-13%
14,Fc1ccc(COc2ccc(/C=N/n3cnnc3)cc2)cc1,-3.03%
15,COC(=O)c1sccc1NC(=O)COc1ccccc1Cl,9.24%
16,Cc1cc(C)c(S(=O)(=O)N2CCCCC2)c(C)c1N(C)S(=O)(=O)c1ccc(Cl)cc1,8.47%
17,Nc1ccc(-c2nc3ccccc3o2)cc1,16.9%
18,Brc1cc(Br)c2ncnc(N3CCCCC3)c2c1,7.96%
19,Cc1c(N=Nc2c(O)n(C)c(=O)n(C)c2=O)c(=O)n(-c2ccccc2)n1C,6.63%

row,Structure (SMILES),"hERG current change (%, negative = inhibition) at 1uM"
1,CN(C)CCCN(C(=O)c1ccc(S(=O)(=O)N2CCCCCC2)cc1)c1nc2ccc(Br)cc2s1.Cl,8.04%
2,O=C1NC[C@H](Cc2ccc(O)cc2)N(CC2CCCCC2)C1=O,15.2%
3,C=C[C@@H]1c2ccccc2N(S(=O)(=O)c2ccc(C)cc2)[C@H](c2ccccc2)C1(C#N)C#N,14.5%
4,Cc1[nH]nc2c1C1(CCC3(CC1)OCCO3)C(C#N)=C(N)O2,-3.1%
5,CC(C)Oc1cccc(C(=O)C2CCCN(Cc3cnc(N4CCOCC4)s3)C2)c1 (stereo not drawn),4.85%
6,CC1(C)Cc2c(sc3c2c(=O)n(-c2cccc(Cl)c2)c(=O)n3CC(N)=O)CO1,10.2%
7,CC(=O)NN=C1CCC(c2ccccc2)CC1 (stereo not drawn),7.42%
8,O=C(CCC(=O)Nc1ccc(Oc2ccccc2)cc1)NCCO,5.53%
9,COc1ccc(CCNC(=O)C2(C)CCC(=O)N2Cc2ccc3c(c2)OCO3)cc1OC (stereo not drawn),9.17%
10,CCc1ccc(OCC(=O)Nc2ccc(S(=O)(=O)N3CCCC3)cc2)c(Br)c1,1.25%
11,CCn1cc(CN2CCC(C(=O)Nc3ccc(Oc4cccnc4)cc3)CC2)cn1,2.13%
12,COc1ccccc1CN1CC(C(=O)N2CCOCC2)CCC1=O (stereo not drawn),10.2%
13,O=C(CCNS(=O)(=O)c1ccccc1Cl)OCc1nnc(-c2ccccc2Cl)o1,7.79%
14,CN(C)/C=C/C(=O)c1cnc2sccn2c1=O,11.2%
15,Oc1ccc(/C=N/Nc2nccnc2Cl)c(O)c1,4.17%
16,CCOC(=O)c1c(=O)n(O)c2ccc(C)cc2[n+]1[O-],24.4%
17,COc1cccc(CN(C)C(=O)CSCC(=O)Nc2cc(C)on2)c1OC,12.5%
18,CC(=O)c1cccc(NC(=O)CN2C(=S)NC(C)(C)CC2C)c1 (stereo not drawn),10.6%
19,O=C(NCc1csc(-c2cccs2)n1)c1ccccc1,13%

row,Structure (SMILES),"hERG current change (%, negative = inhibition) at 1uM"
1,Cc1cccc(C)c1OCC(=O)Nc1nnc(C2CCCO2)s1 (stereo not drawn),4.79%
2,Cc1nnc(NS(=O)(=O)c2ccc(N)cc2)s1,13.1%
3,Cc1cc(C(=O)NC2CCCc3c2cnn3-c2cccc(C)c2C)n(C)n1 (stereo not drawn),18%
4,Cc1cccc(C)c1NC(=O)c1cn(-c2ccccc2)nc1-c1ccccc1,11.8%
5,Nc1nonc1-n1nnc(C(=O)N/N=C/c2cccs2)c1CSc1ccccc1,12.9%
6,O=C1CCCN1CCCNS(=O)(=O)c1cccc(F)c1,1.36%
7,CC(C)Nc1nnc(SCC(=O)Nc2ccc(F)cc2)s1,11.7%
8,CC1(OC(=O)CCc2ccccc2)C(=O)C=C2C=C(c3ccc(C#N)cc3)N(C3CC3)C=C2C1=O (stereo not drawn),-3.82%
9,COc1cccc(NC(=O)COC(=O)CNC(=O)C2CCCCC2)c1,17.7%
10,Cc1noc(C)c1CSCC(=O)NC1=NCCS1,13.6%
11,O=C(CN1CCN(C(=O)C2COc3ccccc3O2)CC1)Nc1ccccc1 (stereo not drawn),-22.5%
12,O=C(N/N=C/c1ccco1)c1cc(-c2ccc(Br)s2)[nH]n1,11.1%
13,C/C(=N\NC(=O)c1ccc(N2CCCC2=O)cc1)c1ccccc1,11.1%
14,Cc1cc(O)c(C(=O)/C=C/c2ccc(Cl)cc2)c(=O)o1,15.7%
15,C[C@@H]1NC(=O)c2cc([N+](=O)[O-])cc(I)c2NCC[C@@H](C(N)=O)NC(=O)[C@H](CC(N)=O)NC1=O,5.96%
16,O=C(CN1C(=O)C2CC=CCC2C1=O)Nc1nnc(C2CC2)s1 (stereo not drawn),9.43%
17,CCSc1ncc(Cl)c(C(=O)Nc2ccc(S(=O)(=O)Nc3ncccn3)cc2)n1,20.2%
18,C=Cc1ccc(Cn2nc(-c3ccc(C)cc3)ccc2=O)cc1,19.4%
19,O=C(NCCc1nc2ccccc2[nH]1)c1ccc(Br)o1,4.53%
